According to paper PMC6078952:
No constants are given. Whether binding was seen depends on the method and setting.

Amino acid sequences for entries named in this document (tags omitted). A change or cut given only in a name is not applied to a line headed by its entry. Chains listed by the source or under a name are the forms on record and can include a tag or linker. Residues count along the entry.
Endostatin, mutant Asp1675Asn (P39060, form named): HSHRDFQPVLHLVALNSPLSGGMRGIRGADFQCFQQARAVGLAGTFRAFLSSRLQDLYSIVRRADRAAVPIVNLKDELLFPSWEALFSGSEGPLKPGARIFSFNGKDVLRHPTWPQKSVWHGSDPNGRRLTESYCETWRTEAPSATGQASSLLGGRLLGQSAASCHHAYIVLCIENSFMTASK
UniProt Q08345, residues 21-416: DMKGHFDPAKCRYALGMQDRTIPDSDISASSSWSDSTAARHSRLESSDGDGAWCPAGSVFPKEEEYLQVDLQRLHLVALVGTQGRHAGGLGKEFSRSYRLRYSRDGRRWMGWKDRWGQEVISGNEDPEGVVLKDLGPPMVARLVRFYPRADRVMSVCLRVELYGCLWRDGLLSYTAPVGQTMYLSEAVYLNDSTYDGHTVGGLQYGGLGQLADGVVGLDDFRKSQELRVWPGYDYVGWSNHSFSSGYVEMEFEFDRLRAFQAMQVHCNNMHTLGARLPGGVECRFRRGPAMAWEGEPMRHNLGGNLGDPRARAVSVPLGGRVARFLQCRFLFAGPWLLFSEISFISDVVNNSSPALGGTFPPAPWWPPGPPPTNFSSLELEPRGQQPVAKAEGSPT
UniProt O14786, residues 23-815: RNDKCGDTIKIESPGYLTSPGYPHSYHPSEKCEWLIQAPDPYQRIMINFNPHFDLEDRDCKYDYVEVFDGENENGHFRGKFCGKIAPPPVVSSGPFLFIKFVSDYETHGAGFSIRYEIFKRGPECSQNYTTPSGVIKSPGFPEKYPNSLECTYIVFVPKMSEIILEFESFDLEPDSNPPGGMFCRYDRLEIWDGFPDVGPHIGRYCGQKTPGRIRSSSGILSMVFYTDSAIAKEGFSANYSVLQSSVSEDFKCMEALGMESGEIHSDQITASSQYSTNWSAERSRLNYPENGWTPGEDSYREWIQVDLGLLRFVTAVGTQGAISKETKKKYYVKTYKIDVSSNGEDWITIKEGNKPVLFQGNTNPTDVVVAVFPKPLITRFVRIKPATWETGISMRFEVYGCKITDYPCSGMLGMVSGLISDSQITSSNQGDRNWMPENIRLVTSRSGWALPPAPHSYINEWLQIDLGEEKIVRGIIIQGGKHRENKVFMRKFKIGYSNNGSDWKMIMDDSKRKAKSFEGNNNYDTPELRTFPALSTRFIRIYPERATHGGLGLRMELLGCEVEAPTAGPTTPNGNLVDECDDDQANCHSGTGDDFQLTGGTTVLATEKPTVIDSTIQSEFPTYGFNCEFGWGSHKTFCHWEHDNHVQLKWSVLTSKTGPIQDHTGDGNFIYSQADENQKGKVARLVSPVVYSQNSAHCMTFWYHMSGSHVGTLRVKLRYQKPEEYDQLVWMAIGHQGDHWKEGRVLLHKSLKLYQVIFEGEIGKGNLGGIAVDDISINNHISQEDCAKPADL
UniProt P02462: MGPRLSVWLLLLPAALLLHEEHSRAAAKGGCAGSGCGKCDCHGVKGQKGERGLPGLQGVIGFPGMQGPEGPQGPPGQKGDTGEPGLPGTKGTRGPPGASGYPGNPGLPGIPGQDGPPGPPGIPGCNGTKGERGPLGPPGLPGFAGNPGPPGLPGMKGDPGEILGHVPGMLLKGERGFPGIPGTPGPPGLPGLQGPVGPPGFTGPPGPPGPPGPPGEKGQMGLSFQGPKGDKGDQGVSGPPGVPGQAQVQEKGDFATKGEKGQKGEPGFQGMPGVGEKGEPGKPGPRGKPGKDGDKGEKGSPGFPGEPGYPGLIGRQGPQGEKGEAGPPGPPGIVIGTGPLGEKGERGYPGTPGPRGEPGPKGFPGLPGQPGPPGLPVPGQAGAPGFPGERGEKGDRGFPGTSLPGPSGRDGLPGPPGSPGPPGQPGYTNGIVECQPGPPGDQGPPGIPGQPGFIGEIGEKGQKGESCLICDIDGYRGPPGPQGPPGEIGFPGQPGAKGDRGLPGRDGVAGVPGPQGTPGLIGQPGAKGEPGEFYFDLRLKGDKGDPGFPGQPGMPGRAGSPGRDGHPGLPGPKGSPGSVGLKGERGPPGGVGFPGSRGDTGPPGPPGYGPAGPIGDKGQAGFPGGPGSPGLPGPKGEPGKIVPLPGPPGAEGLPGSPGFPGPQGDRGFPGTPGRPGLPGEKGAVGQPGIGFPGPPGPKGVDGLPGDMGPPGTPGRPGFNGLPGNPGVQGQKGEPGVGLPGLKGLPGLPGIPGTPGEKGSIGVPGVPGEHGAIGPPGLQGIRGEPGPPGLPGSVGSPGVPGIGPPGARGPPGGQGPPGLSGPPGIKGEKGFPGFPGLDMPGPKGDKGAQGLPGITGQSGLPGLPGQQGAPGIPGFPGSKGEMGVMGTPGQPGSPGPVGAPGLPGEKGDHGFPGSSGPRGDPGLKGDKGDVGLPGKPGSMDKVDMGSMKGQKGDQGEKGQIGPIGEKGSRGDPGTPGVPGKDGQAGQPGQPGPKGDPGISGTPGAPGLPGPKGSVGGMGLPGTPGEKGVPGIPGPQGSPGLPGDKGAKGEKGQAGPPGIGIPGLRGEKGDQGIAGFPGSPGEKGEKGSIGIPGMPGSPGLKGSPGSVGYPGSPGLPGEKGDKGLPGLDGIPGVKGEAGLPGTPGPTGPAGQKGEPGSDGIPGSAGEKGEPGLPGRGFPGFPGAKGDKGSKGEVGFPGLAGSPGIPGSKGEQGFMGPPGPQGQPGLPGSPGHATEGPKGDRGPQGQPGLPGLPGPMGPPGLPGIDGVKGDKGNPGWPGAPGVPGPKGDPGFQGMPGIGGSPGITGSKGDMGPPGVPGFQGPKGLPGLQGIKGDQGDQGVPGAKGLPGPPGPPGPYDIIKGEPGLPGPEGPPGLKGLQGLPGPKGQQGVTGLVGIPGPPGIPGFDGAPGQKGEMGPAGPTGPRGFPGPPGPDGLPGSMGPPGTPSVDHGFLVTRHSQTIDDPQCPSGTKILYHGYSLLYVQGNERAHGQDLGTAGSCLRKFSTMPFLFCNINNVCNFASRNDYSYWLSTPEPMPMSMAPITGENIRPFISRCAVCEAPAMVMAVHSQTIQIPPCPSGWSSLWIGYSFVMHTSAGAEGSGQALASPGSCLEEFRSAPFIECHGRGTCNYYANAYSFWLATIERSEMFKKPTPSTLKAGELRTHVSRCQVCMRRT
UniProt P29279, residues 27-349: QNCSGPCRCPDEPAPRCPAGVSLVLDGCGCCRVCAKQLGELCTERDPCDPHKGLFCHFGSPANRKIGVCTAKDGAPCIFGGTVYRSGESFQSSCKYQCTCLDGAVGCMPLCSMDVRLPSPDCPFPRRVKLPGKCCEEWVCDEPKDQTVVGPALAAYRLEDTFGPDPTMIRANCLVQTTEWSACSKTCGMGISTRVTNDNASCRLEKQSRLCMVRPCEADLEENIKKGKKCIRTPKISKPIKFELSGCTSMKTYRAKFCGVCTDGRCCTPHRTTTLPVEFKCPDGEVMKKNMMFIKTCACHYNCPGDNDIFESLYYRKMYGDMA
UniProt Q86Y22, residues 111-540: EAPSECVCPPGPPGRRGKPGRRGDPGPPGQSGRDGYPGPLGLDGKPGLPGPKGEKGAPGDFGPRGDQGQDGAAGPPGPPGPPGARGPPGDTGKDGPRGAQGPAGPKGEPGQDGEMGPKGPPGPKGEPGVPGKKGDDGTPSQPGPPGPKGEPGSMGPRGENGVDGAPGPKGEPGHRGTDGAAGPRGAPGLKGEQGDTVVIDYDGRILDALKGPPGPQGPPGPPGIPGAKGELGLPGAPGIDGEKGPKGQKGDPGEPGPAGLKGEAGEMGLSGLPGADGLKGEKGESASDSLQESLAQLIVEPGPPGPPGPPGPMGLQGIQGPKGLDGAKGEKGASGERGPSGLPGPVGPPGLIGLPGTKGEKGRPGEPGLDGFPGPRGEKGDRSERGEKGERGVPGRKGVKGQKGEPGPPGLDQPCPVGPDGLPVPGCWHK
UniProt P09038, residues 143-288: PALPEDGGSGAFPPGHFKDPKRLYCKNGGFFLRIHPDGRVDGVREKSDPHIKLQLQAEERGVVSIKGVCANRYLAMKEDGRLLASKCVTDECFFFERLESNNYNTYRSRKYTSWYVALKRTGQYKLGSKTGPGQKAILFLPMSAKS
UniProt Q5TAT6, residues 62-717: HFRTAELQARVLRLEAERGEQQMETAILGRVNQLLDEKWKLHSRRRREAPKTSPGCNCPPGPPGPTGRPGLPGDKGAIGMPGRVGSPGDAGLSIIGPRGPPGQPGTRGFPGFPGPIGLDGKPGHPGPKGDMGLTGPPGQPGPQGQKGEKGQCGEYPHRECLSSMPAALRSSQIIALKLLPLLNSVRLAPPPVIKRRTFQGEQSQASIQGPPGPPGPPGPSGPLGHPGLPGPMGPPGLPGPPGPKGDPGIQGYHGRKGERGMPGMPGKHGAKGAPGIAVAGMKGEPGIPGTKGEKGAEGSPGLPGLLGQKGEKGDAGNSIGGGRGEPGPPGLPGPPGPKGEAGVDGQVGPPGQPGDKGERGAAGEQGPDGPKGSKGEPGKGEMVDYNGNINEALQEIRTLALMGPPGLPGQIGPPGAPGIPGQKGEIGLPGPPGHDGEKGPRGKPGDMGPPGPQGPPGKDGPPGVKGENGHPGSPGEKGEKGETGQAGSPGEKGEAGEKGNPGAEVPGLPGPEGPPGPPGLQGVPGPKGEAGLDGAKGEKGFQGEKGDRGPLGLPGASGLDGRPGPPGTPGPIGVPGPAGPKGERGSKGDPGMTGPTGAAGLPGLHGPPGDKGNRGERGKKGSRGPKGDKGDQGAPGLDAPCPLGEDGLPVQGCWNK
UniProt P06756: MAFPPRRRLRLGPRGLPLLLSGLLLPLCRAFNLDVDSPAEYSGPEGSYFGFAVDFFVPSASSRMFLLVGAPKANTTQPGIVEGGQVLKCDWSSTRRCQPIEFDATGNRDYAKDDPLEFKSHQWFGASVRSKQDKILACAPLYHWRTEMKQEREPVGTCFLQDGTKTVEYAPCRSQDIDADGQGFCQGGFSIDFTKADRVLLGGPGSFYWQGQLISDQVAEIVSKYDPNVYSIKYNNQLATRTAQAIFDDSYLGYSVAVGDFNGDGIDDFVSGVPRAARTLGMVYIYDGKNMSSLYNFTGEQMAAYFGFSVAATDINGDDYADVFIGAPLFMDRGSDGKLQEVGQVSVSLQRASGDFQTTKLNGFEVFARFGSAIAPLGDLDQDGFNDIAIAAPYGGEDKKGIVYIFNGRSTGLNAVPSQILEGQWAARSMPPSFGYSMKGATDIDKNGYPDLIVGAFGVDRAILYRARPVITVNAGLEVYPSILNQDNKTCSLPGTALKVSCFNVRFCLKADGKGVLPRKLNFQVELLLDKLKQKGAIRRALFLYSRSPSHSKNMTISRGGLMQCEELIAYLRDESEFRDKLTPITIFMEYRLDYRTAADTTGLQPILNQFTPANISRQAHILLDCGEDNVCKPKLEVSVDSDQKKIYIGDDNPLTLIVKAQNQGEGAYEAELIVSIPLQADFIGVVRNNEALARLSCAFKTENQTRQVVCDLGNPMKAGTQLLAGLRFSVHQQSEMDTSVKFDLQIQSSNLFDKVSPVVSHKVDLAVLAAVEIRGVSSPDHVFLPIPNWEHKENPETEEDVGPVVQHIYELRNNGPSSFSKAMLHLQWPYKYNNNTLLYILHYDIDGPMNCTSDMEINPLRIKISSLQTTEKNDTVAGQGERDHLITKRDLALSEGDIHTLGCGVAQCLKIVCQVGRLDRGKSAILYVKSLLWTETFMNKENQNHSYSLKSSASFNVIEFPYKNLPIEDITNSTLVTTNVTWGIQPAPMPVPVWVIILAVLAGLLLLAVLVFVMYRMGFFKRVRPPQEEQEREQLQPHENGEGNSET
Lysyl oxidase propeptide (LOX-PP) (Pro24Leu) (P28300, form named): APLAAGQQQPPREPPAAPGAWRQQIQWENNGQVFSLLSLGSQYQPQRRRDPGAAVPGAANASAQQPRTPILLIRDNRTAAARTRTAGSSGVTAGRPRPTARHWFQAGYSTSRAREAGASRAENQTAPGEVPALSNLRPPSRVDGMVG

What was measured:
Assay in all cases: SPR; SPR imaging (SPRi, Biacore Flexchip): partners spotted in triplicate on a bare gold chip at 0.06 to 1 mg/ml; purified LOX-PP injected at 2 µM and recirculated for 20 min; PBS with 0.05% Tween 20, 25 °C; both purified
[1] = target: Endostatin, mutant Asp1675Asn (UniProt P39060)
[2] = target: Discoidin domain-containing receptor 1 ectodomain (DDR1) (UniProt Q08345)
[3] = target: Neuropilin-1 (NRP1) ectodomain (UniProt O14786)
[4] = target: Collagen IV (UniProt P02462)
[5] = target: Connective tissue growth factor (CTGF) (UniProt P29279)
[6] = target: Collagen XXIII ectodomain (UniProt Q86Y22)
[7] = target: Fibroblast growth factor-2 (UniProt P09038)
[8] = target: T1, Periostin (UniProt Q15063)
T1 sequence: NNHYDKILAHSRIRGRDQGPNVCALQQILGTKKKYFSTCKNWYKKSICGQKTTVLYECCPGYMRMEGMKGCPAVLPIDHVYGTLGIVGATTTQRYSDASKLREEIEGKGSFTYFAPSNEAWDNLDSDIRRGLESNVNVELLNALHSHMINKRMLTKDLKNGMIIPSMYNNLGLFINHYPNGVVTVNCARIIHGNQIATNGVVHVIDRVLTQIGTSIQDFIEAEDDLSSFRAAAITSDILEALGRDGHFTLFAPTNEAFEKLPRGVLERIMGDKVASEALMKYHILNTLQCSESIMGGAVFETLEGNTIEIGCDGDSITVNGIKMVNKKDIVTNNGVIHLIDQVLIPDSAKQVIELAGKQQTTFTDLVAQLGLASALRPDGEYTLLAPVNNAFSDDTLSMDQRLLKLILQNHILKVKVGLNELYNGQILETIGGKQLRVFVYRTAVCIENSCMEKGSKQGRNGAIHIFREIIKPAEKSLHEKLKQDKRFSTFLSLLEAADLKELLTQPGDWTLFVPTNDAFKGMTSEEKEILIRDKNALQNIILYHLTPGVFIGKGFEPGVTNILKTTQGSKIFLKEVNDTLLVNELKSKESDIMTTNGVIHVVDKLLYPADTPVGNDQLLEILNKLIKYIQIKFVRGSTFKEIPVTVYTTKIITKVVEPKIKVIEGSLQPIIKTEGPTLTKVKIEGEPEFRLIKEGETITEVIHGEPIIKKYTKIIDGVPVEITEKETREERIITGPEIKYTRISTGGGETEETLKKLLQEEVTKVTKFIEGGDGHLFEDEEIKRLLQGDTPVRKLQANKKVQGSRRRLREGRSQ

[9] = target: T2, Leukocyte-associated immunoglobulin-like receptor-1 (LAIR1) (UniProt Q6GTX8)
T2 sequence: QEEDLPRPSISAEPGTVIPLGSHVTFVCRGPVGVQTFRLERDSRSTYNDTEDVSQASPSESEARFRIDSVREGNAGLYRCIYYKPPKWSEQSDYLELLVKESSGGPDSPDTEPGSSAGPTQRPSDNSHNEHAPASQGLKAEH

[10] = target: Collagen XIII ectodomain (UniProt Q5TAT6)
[11] = target: Integrin αvβ3 ectodomain (UniProt P06756)

Measured: binding

Lysyl oxidase propeptide (LOX-PP) (Pro24Leu) (from UniProt P28300 22-168) (domain or fragment)
no binding (tested: 2 µM): all assays above
